In all, about 43,000 compounds went through this assay and about 200 (0.47%) were called active. About 12% were inconclusive and are not listed. Calls follow the shape of the dose curve; as a rule, active = well fitted cell-killing curve with a large enough effect; inconclusive = small, poorly fitted or top-dose-only effect, or effect the other way; inactive = flat fitted curve, though single readings scatter. This is one part of the list.
test: Cell viability qHTS assay in S16 Pmp22-F2sN cells; details: S16 Pmp22-F2sN Schwann cells viability, CellTiter-Glo, 24 h; series mostly up to 57.5 µM; activity change, negative = cytotoxicity: at the top concentration; also: nearly all actives have a fitted effect of over 65% in size
How it was run: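 S16 Pmp22-F2sN Schwann cells (500-1,000/well) in phenol-red-free DMEM with 10% FBS received 23 nL compound by pin tool for 24 h at 37 °C. Viability was then read as CellTiter-Glo luminescence after 15 min at room temperature.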
% is scaled to controls: 0 for no effect and ±100 for the full control effect.

SMILES | activity change, negative = cytotoxicity
CCOc1ccc(CCNC(=O)c2cc(=O)[nH]c3ccc(S(=O)(=O)N4CCCCC4C)cc23)cc1OCC (stereo not given) | inactive: -10.1%
Fc1ccccc1-c1nc(N2CCN(c3cccc(Cl)c3)CC2)c2ccccc2n1 | inactive: 2.02%
CC(C)(C)C1CCc2c(sc(NC(=O)C3c4ccccc4Oc4ccccc43)c2C(N)=O)C1 (stereo not given) | inactive: 3.21%
COc1ccc(OC)c(CNC(=O)Nc2cn(CC(C)C)c(=O)c3ccccc23)c1 | inactive: -5.14%
CCC(=O)N1c2ccc(S(=O)(=O)CCC(=O)NCc3ccccc3OC)cc2CC1C (stereo not given) | inactive: 11.9%
Cc1ccc(CN(C(=O)COc2ccccc2Cl)c2ccccn2)o1 | inactive: 5.14%
Cc1cccc(NC(=O)Cn2c(=O)n(Cc3ccc4c(c3)OCO4)c(=O)c3oc4ccccc4c32)c1C | inactive: 10.9%
CCOc1ccc(NC(=O)Cn2c(=O)n(Cc3ccc4c(c3)OCO4)c(=O)c3ccc(C(=O)NC4CCCCC4)cc32)cc1 | inactive: 1.44%
Cc1ccc(CNS(=O)(=O)c2ccc(C(=O)N(C)C)s2)cc1 | inactive: 31.6%
COC(=O)c1nnn(CC(=O)NC(=O)Nc2ccc(F)cc2)c1C(=O)OC | inactive: -3.52%
CC(=O)N1CCc2cc(Br)cc(S(=O)(=O)N3CCC(C(=O)Nc4cccc(C)c4C)CC3)c21 | inactive: 13.9%
Cc1ccc(CNC(=O)Nc2cc(C(=O)NCc3cccc(F)c3)ccc2N2CCCC2)cc1 | inactive: -1.53%
O=C(Nc1ccc(S(=O)(=O)N2CCC(c3nc4ccccc4s3)CC2)cc1)c1ccccc1 | inactive: 6.21%
CC1CCCCN1Cc1c(O)ccc2c(=O)c(-c3ccccc3Cl)c(C(F)(F)F)oc12 (stereo not given) | inactive: 1.13%
CCCCn1c(CNC(=O)C23CC4CC(CC(C4)C2)C3)nnc1SCC(=O)Nc1ccc(C)cc1 | inactive: -8.26%
COCCSc1nc2c([nH]c3ccccc32)c(=O)n1-c1ccc(OC)c(OC)c1 | inactive: 11.3%
CCc1ccc(S(=O)(=O)NCc2ccc3c(c2)CCN3C(=O)c2ccc(C)cc2)cc1 | inactive: -15.8%
CC1=C(C(=O)Nc2ccccc2C)C(c2cccs2)n2nc(SCc3ccccc3)nc2N1 (stereo not given) | inactive: 20.2%
CCc1ccc(CNC(=O)C2COc3ccc(OC)cc3C2)cc1 (stereo not given) | inactive: 7.24%
CCOC(=O)c1c(C)sc(-c2c(-c3ccccc3)[nH]c3[nH]c(=O)[nH]c(=O)c23)c1O | inactive: 29.5%

SMILES | activity change, negative = cytotoxicity
CN(Cc1ccccc1)C(=O)CSc1nnc(-c2cccc(Cl)c2)o1 | inactive: -11.5%
COc1ccc(-c2noc(-c3ccc(N4CCOCC4)c([N+](=O)[O-])c3)n2)cc1 | inactive: 0.267%
Cc1scc(CN2CCN(c3ccccc3F)CC2)c1C | inactive: 5.5%
CN(C(=O)CC(=O)Nc1ccc2nc3n(c(=O)c2c1)CCCCC3)c1ccccc1F | inactive: 8.84%
O=C(Cn1ncc2c(Cl)cccc21)NCc1cccc(Cl)c1 | inactive: -6.18%
CCc1ccc(-n2nc(CO)c(C(=O)NCCOC)n2)cc1 | inactive: -2.15%
O=C(Cc1ccccc1)Nc1sc2c(c1C(=O)Nc1cccc(Cl)c1)CCCCC2 | inactive: 14.2%
CC(C)(C)C1CCc2c(sc(NC(=O)c3cccc(Cl)c3)c2C(=O)NCc2ccco2)C1 (stereo not given) | inactive: -2.51%
CC(=O)c1ccc(NC(=O)C2CCN(c3nnc(C)c4c(C)n(-c5ccccc5)nc34)CC2)cc1 | inactive: -5.24%
Cc1ccc(-c2cc(C(=O)N3CCN(S(=O)(=O)c4ccc(Br)cc4)CC3)[nH]n2)c(C)c1 | inactive: 9.06%
CC(C)OCCCn1c(=O)c2ccccc2n2c(-c3ccccc3)nnc12 | inactive: 4.23%
Cc1ccc(S(=O)(=O)c2cn(Cc3ccccc3)c3cc(N4CCCCC4)c(F)cc3c2=O)cc1 | inactive: 6.53%
CC(C)CCOc1ccc(Cn2c(=O)oc3ccccc32)cc1 | inactive: 0.403%
COc1ccc(NC(=O)CSC2=Nc3ccccc3C3=NC(CC(=O)NCCc4ccccc4)C(=O)N23)cc1 (stereo not given) | inactive: -11.6%
O=C(NCc1ccco1)c1ccc(Cn2c(SCc3ccccc3)nc3cccnc32)cc1 | inactive: 8.9%
COc1ccc(NCc2cccn2-c2nnc(N3CCCCCC3)s2)cc1 | inactive: 6.58%
COc1ccc(C(=O)c2cn(Cc3ccccc3F)c3cc4c(cc3c2=O)OCCO4)cc1OC | inactive: -13.9%
Cc1ccc(NC(=O)CN2C=NS(=O)(=O)c3ccccc32)cc1 | inactive: -1.03%
COc1ccc(-c2noc(CC(=O)N(C)c3cccc(C)c3)n2)cc1 | inactive: 26.6%
CCOC(=O)COc1ccc(CC)cc1C(=O)c1ccn2nc(-c3ccc(F)cc3)cc2n1 | inactive: 5.96%

SMILES | activity change, negative = cytotoxicity
CCOC(=O)c1cnc2ccc(Br)cc2c1NCCN1CCOCC1 | inactive: 23.2%
O=C(Nc1ccc(C(=O)OCc2cc(=O)n3nc(C4CC4)sc3n2)cc1)c1ccccc1 | inactive: 3.93%
Cc1cccc(CNC(=O)c2cc3cc(S(=O)(=O)N4CCCCC4)ccc3n2C)c1 | inactive: -19.3%
Cc1ccc(CCNC(=O)Cn2c(-c3cccs3)cc3ccccc32)cc1 | inactive: -4.4%
COc1ccc(Cl)cc1S(=O)(=O)Nc1ccc2[nH]c(=O)[nH]c2c1 | inactive: -16.7%
Cc1ccc(N2CC(NC(=O)c3ccccc3C(F)(F)F)CC2=O)cc1C (stereo not given) | inactive: 7.21%
CCc1ccc(S(=O)(=O)c2cn(Cc3ccccc3)c3cc(N4CCCC4)c(F)cc3c2=O)cc1 | inactive: 6.62%
Clc1ccc2c(c1)-n1cc(-c3ccccc3)nc1CO2 | inactive: 21.2%
COc1ccc(NC(=O)CSc2oc(-c3cccs3)nc2S(=O)(=O)c2ccccc2)c(OC)c1 | inactive: 6.39%
Cc1ccc(Cl)cc1N1CCN(C(=O)CCS(=O)(=O)c2cc(Br)cc3c2N(C(=O)C2CC2)CC3)CC1 | inactive: -22.1%
COc1cccc(CNC(=O)C2CCCN(S(=O)(=O)N(C)c3ccc(F)cc3)C2)c1OC (stereo not given) | inactive: 3.24%
Cc1cccc(NC(=O)CSC2=Nc3ccccc3C3=NC(CC(=O)NCc4cccs4)C(=O)N23)c1 (stereo not given) | inactive: -2.4%
COc1ccc(C(=O)NCCn2cc(SCc3ccc(C(F)(F)F)cc3)c3ccccc32)cc1OC | inactive: -17.9%
COCCn1c(C)cc(O)c(C(c2ccccc2OC)N2CCN(c3ccccc3)CC2)c1=O (stereo not given) | inactive: -12.6%
COc1ccccc1/C=C/c1nc(C#N)c(NC2CCCCC2)o1 | inactive: -22.5%
COc1ccc(CNC(=O)CCCn2nc(C)n3c(cc4sccc43)c2=O)cc1 | inactive: 9.73%
CCn1c(CNC(=O)c2ccc(OC)cc2)nnc1SCC(=O)Nc1cc(C)ccc1C | inactive: 14%
Cn1c(/C(C#N)=C/c2ccccc2Br)nc2ccccc21 | inactive: -29.3%
Cc1ccc(C)c(NC(=O)C2CCN(S(=O)(=O)c3c(C)noc3/C=C/c3cccs3)CC2)c1 | inactive: 2.54%
Cc1sc2c(c1C)c(=O)n(CCc1ccccc1)c(=O)n2Cc1ccc(C(C)(C)C)cc1 | inactive: 11.5%
